Data as given in the supplement of paper PMC11383711.
This is one part of the list. Binding of human antibodies (heavy:light variable regions, tested as scFv in one mRNA-display pool) to influenza hemagglutinin, with or without the stem antibody CR9114 bound first. Score = (mean enrichment − median) / interquartile range of that screen; higher = more enriched, 0 = typical non-binder. Active = above the paper's cut-off per screen: stems 28; unblocked H1 Solomon Islands 5, H1 Michigan 3, H3 5, H5 19, H7 2.85, both B 5; blocked 9, 7, H5 10, H7 10, B Phuket 10, B Lee 11.5. Scores are scaled within each screen and are no affinities; replicates correlate at about 0.6 to 0.9, and antibodies rare in the pool are noisier.

B1: C2-3-G03 (protein)
chain 1: VQLVESGGRLVQPGGSLRLSCAASGFIFSNYWMHWVRQAPGKGLVWVSRINSDGSSIVYADSVKGRFTVSRDNAKNTLYLQMNSLRAEDTAVYYCAREPYHPPQFDYWGQGTLVTVSS
chain 2: DIQMTQSPSSLSASVGDRVTITCRASQGIDTYLNWYRQQPGRPPKLLIYSAANLPSGVPSRFSGSGSGADFTLTISGLQPEDFATFYCQQSYRSPPTFGGGTKVEIK
B2: 2-12C (protein)
chain 1: EVQLVQSGAEVKKPGESLKISCKGSGNGFTTYWIGWVRQVPGKGLEWMGIIYPDDSDTRYSPSFQGQVSISADKSISTAFLQWSSLKASDTAMYFCARLGDVETAMVGQDAFHIWGQGTMVTVSS
chain 2: EIVLTQSPGTLSLSPGDRATLSCRASQSVSSSFLAWYQQKPGQAPRLLMYGASRRATGIPDRFSGSGSGTDFTLTISRLEPEDFAVYYCQQYDSSPFTFGGGTKVEIK
B3: AG12-3D05 (protein)
chain 1: VQLVESGAEVKKPGESLRLSCQASGYNFTDSWISWVRQVPGKGLEWMGRIDPEDSYTNYSPSFQGRVTISADTSITTAYVQWRSLRPSDTAIYFCGRYSVGRKADYWGQGTLVTVSS
chain 2: DIVMTQSPLSQPVTLGQPASISCRSSQSLVYTDGNIYLNWFQQRPGQAPRRLIYKVFNRDSGVPDRFSGSGSGTDFTLKISRVEAEDVGVYYCMQGTHWPYTFGQGTKVEIK
B4: C1-3A03 (protein)
chain 1: QLQLQESGPGLVKPSETLSLTCTVDGGSISSSSYYWDWIRQPPGKGLEWIGSIYYSGETYHNPSLKTRVTTSVDTSKNQFSLRLSSVTAADTAVYYCARRCGGYQYYYGMDVWGQGTTVTV
chain 2: EIVMTQSPATLSVSPGERATLSCRVSQSVIRDLAWYQQKPGQAPRLLIYGASTRATGIPARFSGSGSGTEFTLTISSVHSEDFAVYYCQQYNNWAPITFGQGTRLEIK
B5: W85-2G05 (protein)
chain 1: LVQPQESGPGLVKPSETLSLTCSVSGDSMYDYYWSWIRQPPGKGLEWIGCIHYSGSTNYNPSLKSRVTISVDTSKNQFSLKLSSVTAADTALYYCATGRSSNSGWYPYFYYGLDVWGQGTTVTVSS
chain 2: QSALTQPPSASGTPGQRVTISCSGSSSNIGENYVYWYQLFPGTAPKLVIYRSDQRPSGVPDRFSGSKSGTSASLVISGLRSEDEADFYCATWDDSLSGSWVFGGGTKLTV
B6: AG13-3E04 (protein)
chain 1: VQLLESGGGLVQPGGSLRLSCTASGFTFNNYAMNWVRQAPGKGLEWVSSLSGGGRNIYYADSVKGRFTISRDNFKNTVYLQMNSLRAEDTAIYYCAKPAPMMVVVKNWFDTWGQGTLVTVSS
chain 2: EIVMTQSPATLSVSPGERATLSCRASQSVSANLAWYQQKPGQTPRLLIYDASTRATGIPARFSGSGSGTHFTLTISSLQSEDFAIYYCQQYKDWPPWTFGQGTKVEIK
B7: W85-2C10 (protein)
chain 1: EVQLVESGGGVVQPGRSLRLSCAASGSTFSDRAMHWVRQAPGRGMEWIGFILFHGTNNYHADSVKGRFTISRDNSKNTLYLQMNSLRTEDTAMYYCARDRGAAVVDLTAEAFDLWGQGTMVTVSS
chain 2: DIQMTQSPSSLSASVGDRVTITCRASQGIRNWLAWYQQKPGKAPRSLIYAASTLQSGVPSRFIGSGSGTDFTLTIRGLQPEDFATYFCQQYDSYPLTFGGGTKVEI
B8: R95-1C11 (protein)
chain 1: LVQLKESGPGLLRPSETLFLTCSVSGGSIRDTSYFWGWVRQPPGKGLEWIGNVYYSGTTYYKPSLKSRVTISVDTSKNQFSLNLSSVTAADTAVYYCASLHTVAPSFWGQGTLVTVSS
chain 2: SYELTQPPSVSVSPGQTASITCSGNKLGDKFVCWFQQKPGQSPVVVIYQDTMRPSGIPERFSGSNSGNTATLTISGTQAMDEGDYYCQVWDSSTVVFGGGTKLTVL
B9: S5V2-52-Ig (protein)
chain 1: SGPGLVKPSETLSLTCTVSGDSVNNKIYYWSWIRQTAGRGLEWIGSLSASGSSNYNPSLKSRVTILLHTSENQFSLKLTSVTAADTAVFYCARGGIEDLFLGTSNQRIWYFDVWGRGTQVTVSS
chain 2: SASVGDRVTITCRASQSIGDSLNWYQQKSGRAPNLLMYAASNLQSGVPSRFSGSGSGTDFTLTISSLQPEDFAIYYCQHQVSFGRGTKLEI
B10: R95-1D02 (protein)
chain 1: QVQLQESGPGLVKPSETLSLTCTVSGDSVSDNFWTWIRQPPGKALEWIGYMYYSGSIKYNPSLKSRVTMSLDTSKNQFSLELTSVTAADTAVYYCARATTWGAPEFDYWGQGTLVTVSS
chain 2: DIQMTQSPSSLSASVGDTVTITCRASQSINFYLNWYQQKPGRAPNLLISSASILQSGVPSRFSGSGSGTGFTLTISSLQPEDFATYFCQQSYSSPYTFGQGTKLETK
B11: K77-2D08 (protein)
chain 1: EVQLVESGGGVVQPGGSLRLSCAASGFSFSSHDMHWVRQAPGKGLEWVAFIRYDGSNEYYADSAEGRFAVSRDNSKNTLSLQLNSLRSDDTAVYYCANAADEWGGGLQHDYWGPGTLVIVSS
chain 2: QSALTQPASVSGSPGQSITISCTGGSFDVGGYNYISWYQQHPGKAPRLIIYGVTKRPSGVSTRFSASKSGATASLTISGLQAEDEAEYHCSSYTASTTWVFGGGTKLTV
B12: antibody 1F04 (protein)
chain 1: VQLLESGGGLVQPGGSLRLSCAASGLTFSNYAMSWVRQAPGKGLEWVSVIYSSGSGTWYADSVKGRFTISRDNSKNTLYLQMISLRAEDTAVYYCAKDRIAGSWVDAFDMWGQGTMVTVSS
chain 2: DIQMTQSPSSLSASVGDRVTVTCQASQDFSNSLNWYQQKPGKAPKLLIYGASNLETGVPSRFSGSGSGTHYTFTINSLQPEDIATYYCQQFKAFGQGTKVEIK
B13: AG13-3B01 (protein)
chain 1: VQLVESGGGLVKPGGSLRLSCAASGFTFSDYYMTWIRQAPGKGLEWVSYIDSWSTYTDYPDSVKGRFTVSRDNAKNSLYLQMNSLRADDTAVYFCARDRGDCSRTTCSFDSWGQGTLVTVSS
chain 2: EIVMTQSPATLSVSPGERATLSCRASQSVSSYLAWYQQKPGQAPRLLIYGASTRATGIPARFSGSGSGTEFTLTISSLQSEDFGIYYCQQYSDWPLTFGGGTKVEIK
B14: 039-10-4G01 (protein)
chain 1: QVQLVQSGAEVKKPGASVKVSCKASGYTFSTYYIHWVRQAPGQGPEWMGIINPNGGTVAYARKFQGRVTMTRDTSTSTVYMDLRSLSSEDTAVYYCARDGREVPATTRKDYYYYYYMDIWGRGTTVTVSS
chain 2: DIVMTQSPDSLAVSLGERATINCKSSQSVFYSSNNKDDLAWYQQKPGQPPKLLIYWASTRGSGVPDRFSGSGSGTDFTLTISSLQAEDVAVYYCQQYYTTPPTFGGGTKVEIK
B15: antibody 1F05 (protein)
chain 1: VQLVESGGGLVKPGGSLRLSCAGSGFIFRTYFMSWVRQAPGKGLEWVASINNNGLYIYYSESVEGRFTISRDNAENSVYLQMDSLRADDTALYYCSRGPWEDYDSNTYRTFDYWGQGTLVTVSS
chain 2: DIQMTQSPSTLSASLGARVTISCRASQNIAPWLAWYQQKPGEAPKLLIYKTSNLESGVPSRFSGSGSGTEFTLAISSLQPDDFATYYCQQYNSYPWTFGQGTKVEIK
B16: R95-2F07 (protein)
chain 1: EVQLVESGGGLVQPGRSLRLSCAASGFSFDDYAMHWVRQTPGKGLEWVSGISWNSGSIGYADSVKGRFTISRDNAKNSLYLQMNSLRAEDTALYYCTKDMNRGCDSINCYNYYYYYYGMDVWGQGTTVTVSS
chain 2: QSVLTQPPSVSGAPGQRVTISCTGSSSNIGAGYDVHWYQQLPGTAPKLLIYGNTNRPSGVPDRFSGSQSGTSASLAITGLQAEDEADYYCQSYDSSLSGSLFGGGTKLTV
B17: R95-1F02 (protein)
chain 1: EVQLLESGGGLVQPGGSLRLSCAASGFTFSSCAMTWVRRAPGKGLEWVSAISAGGGSTWYADSVKGRFTISRDNSKNTLYLQMNGLRAEDTAVYYCAKDLLHWYFDLWGRGTLVTVSS
chain 2: EIVLTQSPATLSLSPGEGATLSCRASQSVSSYLAWYQQKPGQAPRLLIYDASNRATGIPARFSGSGSGTDFTLTISSLEPEDFAVYYCQQRRNWPLTFGGGTKVEIK
B18: D1-H1-17-H3-14 (protein)
chain 1: QVQLQESGPGLVKPSESLSLTCSVSGGSVSSNLHYWSWIRQLPGKGLEWIGYISYTGSTKYNPSLNGRVTLSIDASKNQFSLELSSVTAADTAVYYCARDFFEKLIADDLNAFDIWGQGTMVTVSG
chain 2: DIRVTQSPSSLSASVGDRVTITCRASQSISRSLNWYQQRPGKAPKFLIYAASNLQSGVPSRFSGGGSGTDFTLTISSLQPEDFATYYCQETYSRTFGQGTKADIK
B19: AG11-2B01 (protein)
chain 1: VQLQESGPGLVRPSETLSLTCSLSGGSFSEATDYWGWVRQAPGKGLEWIGSMSPSGITYISPSLTSRVTMSVDTSKKQFSLRLSFVVAADAAMYYCIKDRDIVSRGGFDLWGQGTLVTVSS
chain 2: DIQMTQSPSSLSASVGDAVTITCRASESISIFLNWYQHKPGKAPKLLIYLTSTLQSGVPSRFSGSGSGTDFTLTISGLQPEDFATYYCQQSYSHLPYTFGQGTKVEIK

What follows are binders tested against H1 HA stem construct (mini-HA #4900) (assay: mRNA display binding score; higher = more enriched on the antigen). Conditions: antigen blocked with: nothing.
Experimental: (§1)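 A pool of natively paired antibodies, displayed as scFv on mRNA, was selected once on antigen-coated beads and sequenced before and after; two replicates.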

mRNA display binding score, inactive:
B1 -0.669, B2 -0.279, B3 0.0706, B4 -0.0323, B5 0.842, B6 0.178, B7 0.166, B8 -0.985, B9 -0.617, B10 5.68, B11 -0.0667, B12 -0.594, B13 0.842, B14 -0.177, B15 1.88, B16 -0.000898, B17 2.36, B18 1.45, B19 0.859

These binders were tested against H3 HA stem construct (H3ssF) in the same assay as above. Conditions: antigen blocked with: nothing.
Experimental: as §1

mRNA display binding score, inactive:
B1 1.34, B2 0.429, B3 0.117, B4 4.74, B5 5.08, B6 0.46, B7 -0.111, B8 2.74, B9 0.299, B10 11.4, B11 2.88, B12 0.423, B13 5.08, B14 1.24, B15 2.04, B16 0.755, B17 8.75, B18 6.48, B19 -0.153
